Test results as given in the supplement of paper PMC9990464.
Counter-ions that a name gives are not always drawn. The list shows a part of the results. Many values rest on one well or one pass, so single values are uncertain.

Tested on: SKNAS
Test: area under viability curve (10 nM-1 µM), viability relative to solvent or trametinib-only control (AUC (arbitrary, % viability x concentration range)); higher = less growth inhibition (more viable cells)
Conditions: 72 h compound exposure (96 h after seeding) h; trametinib co-treatment 0 µM
Procedure: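 Four neuroblastoma cell lines (KCNR, SKNBE, SJNB8, SKNAS) were seeded in 384-well plates. At 24 h, 1 µM trametinib or DMSO was added, followed by library compounds at 10 nM, 100 nM and 1 µM. Viability was read by MTT at 96 h and normalised to solvent-treated cells (DMSO arm) or to trametinib-only cells (trametinib arm). The area under the 3-point viability curve was computed in GraphPad Prism; units are as given (approx. 100000 = no effect).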
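Note: KCNR is a neuroblastoma cell line carrying an ALK mutation, in this DMSO arm without trametinib, viability was normalised to solvent-treated cells.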

Row | Compound | area under viability curve
1 | Cc1ncc(CNC(=O)N(CCCl)N=O)c(N)n1 [Nimustine HCl] | 120000
2 | O=C(O)c1nn(Cc2ccc(Cl)cc2Cl)c2ccccc12 [Lonidamine] | 122000
3 | CC(=O)Oc1ccc(/C=C/c2cc(OC(C)=O)cc(OC(C)=O)c2)cc1 [Triacetylresveratrol] | 95200
4 | N[C@@H]1C[C@H]1c1ccccc1.N[C@H]1C[C@@H]1c1ccccc1 [Tranylcypromine hemisulfate] | 87200
5 | C=C1C[C@@H]2[C@H](CC[C@]3(C)C(=O)CC[C@@H]23)[C@@]2(C)C=CC(=O)C=C12 [Exemestane] | 109000
6 | N[C@@H](Cc1ccc(N(CCCl)CCCl)cc1)C(=O)O [Melphalan] | 118000
7 | C[C@]12CC[C@@H]3c4ccc(OC(=O)N(CCCl)CCCl)cc4CC[C@H]3[C@@H]1CC[C@@H]2OP(=O)(O)O [Estramustine phosphate sodium] | 84400
8 | CC[C@H](Nc1nc(NCc2cnc(C)cc2C)c2ncn(C(C)C)c2n1)[C@@H](C)O [Fadraciclib] | 94500
9 | C[C@]12CCC(=O)C(O)=C1CC[C@@H]1[C@@H]2CC[C@]2(C)C(=O)CC[C@@H]12 [Formestane] | 95500
10 | N.N.[Cl][Pt][Cl] [Cisplatin] | 77400
11 | CC[C@@]1([C@H]2O[C@H]([C@H]3O[C@@](O)(CO)[C@H](C)C[C@@H]3C)C[C@H]2C)CC[C@H]([C@@]2(C)CC[C@]3(C[C@H](O)[C@@H](C)[C@@H]([C@H](C)[C@H](OC)[C@@H](C)C(=O)O)O3)O2)O1 [Monensin sodium] | 102000
12 | CCC(=O)CCCCC[C@@H]1NC(=O)[C@H]2CCCCN2C(=O)[C@H]([C@@H](C)CC)NC(=O)[C@H](Cc2cn(OC)c3ccccc23)NC1=O [Apicidin] | 52600

Same assay, conditions: 72 h compound exposure (96 h after seeding) h; trametinib co-treatment 1 µM

Row | Compound | area under viability curve
13 | Cc1ncc(CNC(=O)N(CCCl)N=O)c(N)n1 [Nimustine HCl] | 100000
14 | O=C(O)c1nn(Cc2ccc(Cl)cc2Cl)c2ccccc12 [Lonidamine] | 100000
15 | CC(=O)Oc1ccc(/C=C/c2cc(OC(C)=O)cc(OC(C)=O)c2)cc1 [Triacetylresveratrol] | 102000
16 | N[C@@H]1C[C@H]1c1ccccc1.N[C@H]1C[C@@H]1c1ccccc1 [Tranylcypromine hemisulfate] | 93100
17 | C=C1C[C@@H]2[C@H](CC[C@]3(C)C(=O)CC[C@@H]23)[C@@]2(C)C=CC(=O)C=C12 [Exemestane] | 102000
18 | N[C@@H](Cc1ccc(N(CCCl)CCCl)cc1)C(=O)O [Melphalan] | 97800
19 | C[C@]12CC[C@@H]3c4ccc(OC(=O)N(CCCl)CCCl)cc4CC[C@H]3[C@@H]1CC[C@@H]2OP(=O)(O)O [Estramustine phosphate sodium] | 99600
20 | CC[C@H](Nc1nc(NCc2cnc(C)cc2C)c2ncn(C(C)C)c2n1)[C@@H](C)O [Fadraciclib] | 101000
21 | C[C@]12CCC(=O)C(O)=C1CC[C@@H]1[C@@H]2CC[C@]2(C)C(=O)CC[C@@H]12 [Formestane] | 97300
22 | N.N.[Cl][Pt][Cl] [Cisplatin] | 101000
23 | CC[C@@]1([C@H]2O[C@H]([C@H]3O[C@@](O)(CO)[C@H](C)C[C@@H]3C)C[C@H]2C)CC[C@H]([C@@]2(C)CC[C@]3(C[C@H](O)[C@@H](C)[C@@H]([C@H](C)[C@H](OC)[C@@H](C)C(=O)O)O3)O2)O1 [Monensin sodium] | 83700
24 | CCC(=O)CCCCC[C@@H]1NC(=O)[C@H]2CCCCN2C(=O)[C@H]([C@@H](C)CC)NC(=O)[C@H](Cc2cn(OC)c3ccccc23)NC1=O [Apicidin] | 55800
